Results as given in ChEMBL document CHEMBL4888484, “Replenishing the malaria drug discovery pipeline: Screening and hit evaluation of the MMV Hit Generation Library 1 (HGL1) against asexual blood stage Plasmodium falciparum ,using a nano luciferase reporter read-out” (2022).
Out of some 150,000 compounds screened, about 540 (0.36%) showed an effect of 50% or more. This is one part of the list.

system: Plasmodium falciparum; assay: Primary screen in NF54 nanoGlo assay, in single point, at 2uM, 72h; a lower Z score goes with more inhibition; assay type: functional, Erythrocyte; settings: timepoint 72 hour

Row | Structure (SMILES) | % Inhibition [%] | Z score
1 | CCc1noc(C)c1C(=O)N[C@H]1[C@@H]2CCO[C@@H]2[C@@H]1C1CCCC1 | -14 | 2.69
2 | CC(=O)Nc1nc(C)c(S(=O)(=O)N2CCN(Cc3ccccc3)CC2)s1 | -14 | 1.52
3 | CC(C)(C)OC(=O)Nc1ccccc1Cl | 8 | -1.27
4 | Cc1nn(CC(=O)N[C@H]2CS(=O)(=O)C2(C)C)c2ncccc12 | -3 | 0.28
5 | N#Cc1ccc(CN2C(=O)NC3(CCCCCCC3)C2=O)cc1 | -4 | 0.72
6 | O=S(=O)(c1cc(F)ccc1F)N1CCC(c2noc(COCC3CC3)n2)CC1 | -2 | 0.28
7 | c1ccc2c(-c3ncc(CN4CCCN5CCC[C@H]5C4)cn3)cccc2c1 | 3 | -0.62
8 | COCCN1CCC[C@@H]1CNC1Cc2ccccc2C1 | -5 | 0.53
9 | O=C(Nc1ccc(Oc2ccccc2)cc1)C1CCN(S(=O)(=O)Cc2ccc(F)cc2)CC1 | -6 | 1.04
10 | CN(C)c1noc(CN[C@H]2CCOC2)n1 | -9 | 0.91
11 | COCCNC(=O)NCCn1nc(C2CC2)n(-c2ccccc2)c1=O | -15 | 1.67
12 | c1ccn2c(CNc3cnccn3)cnc2c1 | -5 | 0.96
13 | CCc1nnc2n1C[C@@H](CNCc1cn3ccccc3c1C#N)CC2 | -2 | 0.3
14 | CC(C)CC(=O)Nc1ccc2c(c1)cc(C(=O)Nc1ccccc1)n2Cc1ccc(C(C)(C)C)cc1 | 30 | -3.6
15 | Cc1ccc(OCC(=O)N2CC[C@H](c3nc4ccncc4n3C(C)C)C2)cc1 | -6 | 0.54
16 | COCC1(C(=O)NCc2cc3c(nc2OC)CN(C2CCCC2)C3=O)CCC1 | -4 | 0.58
17 | O=C(NC1CCOC2(CCCCC2)C1)C1CCCN1C(=O)Cc1cccs1 (stereo not drawn) | -1 | 0.22
18 | O=C(c1ccn2c(-c3ccccc3)nnc2c1)N1CCN(c2cccc(C(F)(F)F)c2)CC1 | -10 | 1.17
19 | O=C(CN1CCN(C2CCCCC2)C(=O)C1=O)NC1CCCCC1 | -10 | 1.21
20 | O=C(C[C@H]1COc2ccccc2O1)Nc1ccccn1 | -13 | 1.66
21 | CCc1nc(Cc2nc(Cc3ccccc3)no2)cs1 | -7 | 0.81

Row | Structure (SMILES) | % Inhibition [%] | Z score
22 | CC(C)[C@@H]1CCCN1C(=O)CCc1c[nH]cn1 | -13 | 1.34
23 | O=C(N[C@H](c1ccncc1)c1ccc(Cl)cc1)c1cn(CCCc2ccccc2)nn1 | -1 | 0.09
24 | Cn1cc(C(N)=O)c(NC(=O)c2ccc(-c3cccs3)s2)n1 | -16 | 1.83
25 | CN(C)c1ccc(CN2CC[C@H](c3nc4ccccc4n3C)C2)cc1 | -13 | 2.08
26 | CC(C(=O)N1C(C)CC(c2ccccc2)C1C)C1CCOCC1 (stereo not drawn) | -12 | 1.7
27 | O=c1[nH]nc2n1CCN(Cc1ccc(F)c(Br)c1)CC2 | 4 | -0.51
28 | Cc1cccc([C@H](C)NC(=O)CCc2cn[nH]c2)n1 | -12 | 1.75
29 | CN1CCC(CCO)(NC(=O)c2cc(F)cc3ccoc23)CC1 | -1 | 0.25
30 | COC(=O)N1CCC[C@H](NC(=O)Nc2cccc(OC(F)F)c2)C1 | 2 | -0.27
31 | O=C(NCc1ccccc1F)c1ccc(CN2C(=O)CNC2=O)cc1 | -5 | 0.5
32 | C[C@H](NC(=O)c1nn(C)cc1Cl)c1nc(C2CC2)no1 | -12 | 1.39
33 | Cc1nc(C(C)C)sc1CNC(=O)c1cnc(N)s1 | -14 | 1.58
34 | CC1CC(N[C@@H]2CCCC[C@H]2NC(=O)OC(C)(C)C)CC(C)O1 (stereo partly drawn) | -2 | 0.27
35 | CCOC(=O)CCC(=O)N1CCC(Oc2ccc(C)nn2)CC1 | -11 | 2.1
36 | CC1CCC(C)N1C(C)C(=O)NCc1ccc(F)c(CO)c1 (stereo not drawn) | -4 | 0.72
37 | COC(=O)c1c(CS(=O)(=O)c2ccc(C)cc2)nn2c1CCCC2 | 0 | -0.05
38 | Cn1nc(CN2CCOCC2)c2c1CCN(S(=O)(=O)c1ccccc1)C2 | -15 | 2.78
39 | O=C(NCC1CN2CCCC2CO1)NC1CCCCC1 (stereo not drawn) | -4 | 0.6
40 | O=C1N[C@]2(Nc3ccccc31)C(=O)Nc1cc3c(cc12)OCCO3 | 1 | -0.09
41 | N#Cc1c(-c2ccccc2)cc(C[C@H]2CCOC2)nc1N | 6 | -0.7
42 | CCn1cc([C@H](CC(=O)NC2CCCCC2)c2cccc(Cl)c2)c2ccccc21 | -3 | 0.52

Row | Structure (SMILES) | % Inhibition [%] | Z score
43 | COC(=O)[C@H]1CCc2cnn(Cc3ccc(-n4cccn4)cc3)c2C1 | -2 | 0.35
44 | CCN(CCOc1cccc(C)c1)C(=O)N[C@@H](C)Cn1cncn1 | -1 | 0.09
45 | CCOc1ccc(NC2=NC(=O)[C@@H](C#N)C3(CCN(Cc4ccccc4)CC3)N2)cc1 | 34 | -0.64
46 | C[C@@H](Cn1c(=O)[nH]c2ccccc2c1=O)N(C)c1ccccc1 | 33 | -4.83
47 | COCc1c(C(=O)NC[C@H]2COCCO2)cnn1-c1ncc2c(n1)-c1ccccc1CCC2 | 2 | -0.36
48 | COc1ccc(NC(=O)c2nn(CC3CC3)c3c2COCC3)c(OC)c1 | -10 | 1.89
49 | CCOC1CC(NC(=O)NC(C)c2nc(C)cs2)C1(C)C (stereo not drawn) | -6 | 0.77
50 | Cc1ccc2cc3n(c2c1)C[C@](C(=O)NC1CCCCCCC1)(c1ccccc1)N(Cc1cccc(F)c1)C3=O | 4 | -0.64
51 | CC(C)CC(C)N(C)C(=O)NC(C)Cc1ccsc1 (stereo not drawn) | -3 | 0.26
52 | O=C(c1cccnc1-c1ccc(Cl)c(C(F)(F)F)c1)N1CCCC1 | -8 | 1.18
53 | CN(C)C(=O)c1cc(S(=O)(=O)N2CCCC[C@H]2c2nc(-c3ccccc3)c[nH]2)cn1C | -7 | 0.98
54 | Cc1[nH]ccc1C(=O)NC1CCC(CS(C)(=O)=O)CC1 (stereo not drawn) | -5 | 0.59
55 | C[C@H](NC(=O)c1cnn2c1OCCC2)c1ccccc1 | -3 | 0.43
56 | CCC[C@H]1CN(c2nnc(-c3ccccc3)s2)C[C@@H]1N | 4 | -0.7
57 | FC(F)(F)C(Oc1nc(N2CCCCCC2)nc(N(c2ccccc2)c2ccccc2)n1)C(F)(F)F | 4 | -0.51
58 | OCc1cc(-c2cccc3ccsc23)ccn1 | -6 | 0.53
59 | Cc1cc(-n2ccnc2)ccc1CN1C[C@H](C)OCC1(C)C | 5 | -0.91
60 | CC(C)c1ccc([C@@H]2c3cccn3CCCN2Cc2ccco2)cc1 | 6 | -0.95
61 | Cc1ccc(CCC(=O)N[C@@H](C)c2ccccc2N2CCOCC2)o1 | -12 | 1.65
62 | COc1ccc(C2CN(C(=O)c3ccccc3C)CC2C(=O)NC2CC2)c(OC)c1 (stereo not drawn) | -10 | 1.18
63 | CCn1cc([C@H](C)NCc2cnn(CC)n2)cn1 | -1 | 0.13

Row | Structure (SMILES) | % Inhibition [%] | Z score
64 | CCCc1c(NC(=O)[C@H]2OCCO[C@H]2C)cnn1-c1cccc(C)c1 | -5 | 0.55
65 | COc1cccc2cc(CN3CCN(Cc4cc(C)on4)CC3)oc12 | -12 | 1.06
66 | Cc1oc(-c2ccccc2Cl)cc1C(=O)NCc1csc(N)n1 | -3 | 0.64
67 | CC(NC(=O)C1CCCN1c1ncnc2ccccc12)c1ncon1 (stereo not drawn) | -8 | 1.29
68 | CC(C)c1cc(C(=O)N2CCC[C@H](c3[nH]ncc3-c3ccc(F)cc3)C2)n(C)n1 | -4 | 0.63
69 | CCc1ccc(C(=O)N2CCC(n3cnnc3COC)CC2)cc1 | -6 | 0.96
70 | O=C(O)CC[C@@H]1CN(c2nccc3ccccc23)CC[C@@H]1N1CCOCC1 | -12 | 1.22
71 | CC(C)C(=O)N(CC(=O)N1CCCN(c2ccc(-c3ccccc3)nn2)CC1)[C@@H](C)c1ccccc1 | -12 | 1.13
72 | CCNC(=O)N1CCN([C@H](C(=O)N(C)Cc2ccccc2)C2CCCC2)CC1 | -1 | 0.24
73 | CC(C)(C)OC(=O)N1CCN(c2nnc(N)[nH]2)CC1 | 10 | -1.27
74 | COc1cc2c(cc1OC)CN(C(=O)c1cccc(N3CCCC3=O)c1)CC2 | 5 | -0.76
75 | Cn1nc(-c2nc(C3CCOCC3)no2)c2c1CN(C(=O)Cc1cccs1)C2 | 8 | -1.22
76 | CC1CN(CC2CCCO2)CCC1NC(=O)N1CCCC1C1CCC1 (stereo not drawn) | -5 | 0.86
77 | O=C(c1nccc2ccccc12)N1CC[C@H](OCC2CC2)C1 | -4 | 0.44
78 | Cc1nc(O)cc(CNC(=O)c2cccc(-c3ccc(C(C)C)nn3)c2)n1 | -10 | 1.84
79 | Cn1cc(CN[C@H]2CCCN(c3ccc(C#N)cc3F)C2)c(=O)n(C)c1=O | -5 | 0.48
80 | CCCn1cc(C(=O)N(Cc2ccncc2)C[C@@H]2CCC(=O)N2)c(C)n1 | 0 | 0.07
81 | CC(=O)N1CC(OCC(=O)Nc2nc(-c3ccc(F)c(Cl)c3)cs2)C1 | 21 | -2.49
82 | CCn1c(-c2cnccn2)nnc1N1CCC(C)(COC)CC1 | -10 | 1.17
83 | CN(Cc1ccc(F)cc1)c1cc([C@H]2CCOC2)nc(NCCO)n1 | -12 | 2.33
84 | CC(C)[C@H]1C(=O)N(C)CCN1CC(=O)NCCc1ccc(F)cc1 | -9 | 0.87
